Experimental data as given in patent publication US20250270341A1 (Alector, published 2025).

T1: huCD98hc ECD Avi-His (human, UniProt P08195 105-529)
T1 construct: biotinylated on the Avi tag where captured on streptavidin; also called Human CD98-AVI-His; Human CD98hc-AVI-His
T1 sequence: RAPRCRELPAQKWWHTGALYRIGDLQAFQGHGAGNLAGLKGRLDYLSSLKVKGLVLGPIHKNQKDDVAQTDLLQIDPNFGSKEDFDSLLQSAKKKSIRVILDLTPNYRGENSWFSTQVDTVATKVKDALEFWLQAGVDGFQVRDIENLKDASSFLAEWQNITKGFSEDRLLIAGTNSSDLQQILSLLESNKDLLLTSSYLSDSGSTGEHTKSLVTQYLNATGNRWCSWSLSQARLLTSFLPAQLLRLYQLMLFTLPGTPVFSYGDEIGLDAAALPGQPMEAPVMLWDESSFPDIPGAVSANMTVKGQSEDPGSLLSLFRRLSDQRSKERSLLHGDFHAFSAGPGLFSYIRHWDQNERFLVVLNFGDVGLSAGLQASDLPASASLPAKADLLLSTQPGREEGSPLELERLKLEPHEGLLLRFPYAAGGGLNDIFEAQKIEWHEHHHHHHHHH

T2: Cyno CD98hc ECD Avi-His (cynomolgus macaque, UniProt P08195 105-529 (human entry))
T2 construct: biotinylated on the Avi tag where captured on streptavidin; also called Cyno CD98-AVI-His; Cyno CD98hc-AVI-His
T2 chain: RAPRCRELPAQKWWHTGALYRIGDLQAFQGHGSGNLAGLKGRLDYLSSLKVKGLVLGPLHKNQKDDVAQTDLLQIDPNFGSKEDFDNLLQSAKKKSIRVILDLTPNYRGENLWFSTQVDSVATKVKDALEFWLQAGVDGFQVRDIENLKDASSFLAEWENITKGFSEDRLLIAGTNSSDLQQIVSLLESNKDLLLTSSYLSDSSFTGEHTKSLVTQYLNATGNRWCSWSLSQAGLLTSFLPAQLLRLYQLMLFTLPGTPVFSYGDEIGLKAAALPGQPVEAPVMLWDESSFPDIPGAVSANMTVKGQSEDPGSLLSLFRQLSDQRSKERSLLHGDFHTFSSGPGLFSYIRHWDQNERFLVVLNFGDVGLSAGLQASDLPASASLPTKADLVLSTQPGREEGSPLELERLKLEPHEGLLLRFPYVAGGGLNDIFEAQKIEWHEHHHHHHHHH

T3: muCD98hc ECD Avi-His (mouse, UniProt P10852 100-526)
T3 construct: biotinylated on the Avi tag where captured on streptavidin; also called Mouse CD98-AVI-His; Mouse CD98hc-AVI-His
T3 sequence: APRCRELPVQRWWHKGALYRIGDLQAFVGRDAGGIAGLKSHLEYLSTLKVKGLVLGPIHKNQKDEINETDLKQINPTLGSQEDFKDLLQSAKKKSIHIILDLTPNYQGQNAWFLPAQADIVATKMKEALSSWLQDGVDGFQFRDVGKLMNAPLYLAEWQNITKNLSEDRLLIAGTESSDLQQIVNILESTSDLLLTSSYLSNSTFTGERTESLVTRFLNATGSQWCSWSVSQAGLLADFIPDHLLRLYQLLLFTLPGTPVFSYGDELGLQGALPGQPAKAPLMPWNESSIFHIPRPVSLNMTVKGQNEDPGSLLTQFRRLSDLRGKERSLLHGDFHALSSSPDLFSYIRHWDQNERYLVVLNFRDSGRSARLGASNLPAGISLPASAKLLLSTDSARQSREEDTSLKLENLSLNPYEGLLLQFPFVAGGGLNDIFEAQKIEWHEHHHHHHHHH

B1: CD98hc.04.018 (2+1 bispecific antibody) (bispecific antibody)
heavy 1: EVRLLESGGGLVQPGGSLRLSCAASGFTFSNYAMGWVRQAPGKGLEWVSAISGSGGSTYYADSVKGRFTTSRDDSKNALYLQMNSLRAEDTAVYYCARGGPGWYAADVWGQGTTVTVSSASTKGPSVFPLAPSSKSTSGGTAALGCLVKDYFPEPVTVSWNSGALTSGVHTFPAVLQSSGLYSLSSVVTVPSSSLGTQTYICNVNHKPSNTKVDKKV[here human IgG1 Fc with changes without letters]GGGGSGGGGSGGGGSQIQLVQSGPELKKPGETVKISCKASGYTFRNYGMNWVKQAPGKGLKWMGWINTYTGEPTYAEDFKGRFAFSLETSASTAYLQINKLKNEDEATYFCARGEAHWYFDVWGAGTTVTVSSGGSEGKSSGSGSESKSTGGSQIVLTQSPAIMSASLGERVTMTCTASSSVSSSYLYWYQQKPGSSPKLWIYSIFNLASGVPARFSGSGSGTSYSLTISSMEAEDAATYYCHQYHRSPPTFGGGTKLEIK
heavy 2: EVRLLESGGGLVQPGGSLRLSCAASGFTFSNYAMGWVRQAPGKGLEWVSAISGSGGSTYYADSVKGRFTTSRDDSKNALYLQMNSLRAEDTAVYYCARGGPGWYAADVWGQGTTVTVSS[here human IgG1 constant region with changes without letters]
light: DIQMTQSPSSLSASVGDRVTITCRASQSISSYLNWYQQKPGKAPKLLIYAASSLQSGVPSRFSGSGSGTDFTLTISSLQPEDFATYYCQQADLPAFAFGGGTKVEIKRTVAAPSVFIFPPSDEQLKSGTASVVCLLNNFYPREAKVQWKVDNALQSGNSQESVTEQDSKDSTYSLSSTLTLSKADYEKHKVYACEVTHQGLSSPVTKSFNRGEC
B2: CD98hc.04.022 (2+1 bispecific antibody) (bispecific antibody)
heavy 1: EVRLLESGGGLVQPGGSLRLSCAASGFTFSNYAMGWVRQAPGKGLEWVSAISGSGGSTYYADSVKGRFTTSRDDSKNALYLQMNSLRAEDTAVYYCARGGPGWYAADVWGQGTTVTVSSASTKGPSVFPLAPSSKSTSGGTAALGCLVKDYFPEPVTVSWNSGALTSGVHTFPAVLQSSGLYSLSSVVTVPSSSLGTQTYICNVNHKPSNTKVDKKV[here human IgG1 Fc with changes without letters]GGGGSGGGGSGGGGSEVQLQQSGAELVKPGASVKLSCTASGFNIKDTFMHWMKQRPEQGLEWIGRIDPANANTRYDPKFQGKATITTDTSSNTAYLQLSSLTSEDTAVYYCARDVYYDVWGAGTTVTVSSGGSEGKSSGSGSESKSTGGSDILMTQSPSSMSVSLGDTVTITCHASQGISSNIGWLQQKPGRSFKGLIYHGSNLEDGVPSRFTGSGSGTDYSLTISGLESEDFADYYCVQYAQFPRTFGGGTKLEIQ
heavy 2: EVRLLESGGGLVQPGGSLRLSCAASGFTFSNYAMGWVRQAPGKGLEWVSAISGSGGSTYYADSVKGRFTTSRDDSKNALYLQMNSLRAEDTAVYYCARGGPGWYAADVWGQGTTVTVSS[here human IgG1 constant region with changes without letters]
light: B1 light
B3: CD98hc.04.045 (2+1 bispecific antibody) (bispecific antibody)
heavy 1: EVRLLESGGGLVQPGGSLRLSCAASGFTFSNYAMGWVRQAPGKGLEWVSAISGSGGSTYYADSVKGRFTTSRDDSKNALYLQMNSLRAEDTAVYYCARGGPGWYAADVWGQGTTVTVSSASTKGPSVFPLAPSSKSTSGGTAALGCLVKDYFPEPVTVSWNSGALTSGVHTFPAVLQSSGLYSLSSVVTVPSSSLGTQTYICNVNHKPSNTKVDKKV[here human IgG1 Fc with changes without letters]GGGGSGGGGSGGGGSQIQLVQSGPELKKPGETVKISCKASGYSITNFGMNWVKQAPGKGLKWMGWVNTYTGEPTYADDFKGRFAFSLETSASTASLQINNLKNEDTATYFCTRSVITYTMDYWGQGTSVTVSSGGSEGKSSGSGSESKSTGGSDIQLTQSPSSLSASLGERVSLTCRASQEISGYLSWLQQKPDGTIKRLIYAASTLDSGVPKRFSGSRSGSDYSLTISSLESEDFADYYCLQYASYPRTFGGGTKVEIK
heavy 2: EVRLLESGGGLVQPGGSLRLSCAASGFTFSNYAMGWVRQAPGKGLEWVSAISGSGGSTYYADSVKGRFTTSRDDSKNALYLQMNSLRAEDTAVYYCARGGPGWYAADVWGQGTTVTVSS[here human IgG1 constant region with changes without letters]
light: B1 light

Molecular target: T1, huCD98hc ECD Avi-His
Assay: ELISA, 1 ug/ml

Binder | ELISA fold-change relative to isotype hIgG
B1 | 23.6
B2 | 19.6
B3 | 21.9

Molecular target: T4, Human TfR-AVI-His (control) (human, UniProt P02786)
T4 construct: control protein; also called Avi-His-tagged human TfR; human transferrin receptor
T4 sequence (P02786 89-760 limits assumed): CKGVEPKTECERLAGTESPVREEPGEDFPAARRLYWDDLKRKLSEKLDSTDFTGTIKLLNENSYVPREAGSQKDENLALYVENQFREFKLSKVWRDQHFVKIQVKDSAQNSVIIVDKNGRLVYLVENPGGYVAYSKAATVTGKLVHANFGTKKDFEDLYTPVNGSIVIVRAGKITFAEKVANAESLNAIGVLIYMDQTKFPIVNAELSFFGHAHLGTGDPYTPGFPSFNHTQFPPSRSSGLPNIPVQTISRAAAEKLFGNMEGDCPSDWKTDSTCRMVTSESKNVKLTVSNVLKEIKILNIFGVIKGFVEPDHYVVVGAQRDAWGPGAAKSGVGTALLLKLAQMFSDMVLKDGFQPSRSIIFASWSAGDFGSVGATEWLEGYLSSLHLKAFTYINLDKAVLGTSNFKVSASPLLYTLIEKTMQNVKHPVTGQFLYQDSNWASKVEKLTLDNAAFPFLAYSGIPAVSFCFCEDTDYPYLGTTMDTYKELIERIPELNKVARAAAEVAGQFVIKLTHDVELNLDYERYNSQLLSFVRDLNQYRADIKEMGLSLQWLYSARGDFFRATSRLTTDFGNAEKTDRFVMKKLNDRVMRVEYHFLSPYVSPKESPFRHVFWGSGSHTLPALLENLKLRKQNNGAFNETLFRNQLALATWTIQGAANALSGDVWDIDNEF
Assay: ELISA, 1 ug/ml

Binder | ELISA fold-change relative to isotype hIgG
B1 | 1.1
B2 | 1.2
B3 | 1.1

Molecular target: T2, Cyno CD98hc ECD Avi-His
Assay: ELISA, 1 ug/ml

Binder | ELISA fold-change relative to isotype hIgG
B1 | 22.7
B2 | 12.6
B3 | 20.1

Molecular target: T3, muCD98hc ECD Avi-His
Assay: ELISA, 1 ug/ml

Binder | ELISA fold-change relative to isotype hIgG
B1 | 1.1
B2 | 1.1
B3 | 1.1
